# Data: PubChem BioAssay AID761 (NMMLSC, 2007)
# In all, about 190,000 compounds went through this assay and about 400 (0.21%) were called active. This list was built around the results that the source calls inconclusive (neither active nor inactive); the mix of calls is not that of the screen.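 Rule for the calls: active = percent activity GTP binding at least 20 points away from the 100% baseline, either down as inhibitor or up as activator; inconclusive = compound flagged as likely green fluorescent from well-wide comparison; inactive = the rest.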
# Target: Cell division control protein 42 homolog (Homo sapiens) (UniProt P60953)
# Assay: wildtype Cdc42 fluorescent GTP binding changes, either direction – biochemical, multiplex bead flow cytometry, Bodipy-GTP, primary screen (AID 761);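 note: median bead fluorescence of bound Bodipy-FL-GTP at 100 nM; 0% = excess unlabeled GTP control and 100% = no compound control; below 100% means less GTP binding so inhibitor and above means activator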
# Conditions: GST-Cdc42 beads, at 10 µM, actives lie on both sides
# Sequence of UniProt P60953 (P60953 whole entry, looked up): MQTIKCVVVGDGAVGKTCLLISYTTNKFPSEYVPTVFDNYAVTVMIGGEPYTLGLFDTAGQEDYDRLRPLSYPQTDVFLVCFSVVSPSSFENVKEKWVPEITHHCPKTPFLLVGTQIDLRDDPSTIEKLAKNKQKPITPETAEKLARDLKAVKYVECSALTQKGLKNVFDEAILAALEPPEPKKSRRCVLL
row,Structure (SMILES),percent activity (GTP binding)
1,Cc1ccc2nc(NC(=O)C3CCN(S(=O)(=O)c4cc([N+](=O)[O-])ccc4Cl)CC3)sc2c1,inconclusive: 99%
2,Cc1c(Cl)cccc1NC(=S)NCC(c1cccnc1)N(C)C (centres undefined),inactive: 93%
3,CCOc1cc(CNc2ccc3c(c2)OCCO3)cc(Br)c1OC,inconclusive: 104%
4,COc1cccc(NC(=O)CC2C(=O)NCCN2C(=S)Nc2ccc(F)cc2)c1 (centres undefined),inactive: 97%
5,OC(CNCc1ccccn1)c1ccccc1 (centres undefined),inconclusive: 104%
6,CC(C)(C)NC(=O)CC(CC(=O)O)c1ccccc1 (centres undefined),inconclusive: 103%
7,CC(C)Sc1nc2sc3c(c2c2nnc(SCC(=O)NCc4ccco4)n12)CCCC3,inactive: 98%
8,CCN(CC)c1ccc(/C=C/C(=O)c2ccc(Br)cc2)cc1,inconclusive: 112%
9,COC(=O)c1cccc(-n2cnnn2)c1,inconclusive: 100%
10,CS(=O)(=O)Nc1ccc(C(=O)NCCSCc2c(F)cccc2Cl)cc1,inactive: 98%
11,CCn1ncc(Cl)c1C(=O)Nc1cc(Cl)ccc1Cl,inconclusive: 90%
12,Cc1ccc(-c2csc(NC(=O)CSc3nc4ccccc4c(=O)n3CCCN(C)C)n2)cc1,inactive: 95%
13,COC(=O)[C@H](CCSC)NC(=O)NC1CCN(Cc2ccccc2)CC1,inconclusive: 108%
14,CC(C)c1ccc(OCC(=O)NC2=NCCS2)cc1,inactive: 97%
15,Cc1cc(C)c(C)c(OCCCN(C)C)c1,inactive: 104%
16,Nc1nc(-c2ccccc2)nc2sc3c(c12)CCCC3,inactive: 96%
17,CS(=O)(=O)N(CC(=O)NCc1cccnc1)C1CCCCC1,inactive: 93%
18,CCc1c(C)sc(NC(=O)Cn2nc(C)c([N+](=O)[O-])c2C)c1C(N)=O,inactive: 93%
19,CCOc1ccc(Br)cc1C1C(C(=O)OC)=C(N)Oc2cc(N(C)C)ccc21 (centres undefined),inactive: 105%
20,N#Cc1c(Nc2ccccc2)c(/C=N/NCCO)c[nH]c1=O,inactive: 95%

row,Structure (SMILES),percent activity (GTP binding)
1,Cc1cc(=O)n2nc(N3CCCC3C(=O)NCc3ccccn3)sc2n1 (centres undefined),inconclusive: 102%
2,Cc1ccc(-c2nnc(SCC(=O)NC(=O)Nc3ccc(C)cc3C)n2N)cc1,inconclusive: 99%
3,O=C(COC(=O)C1(c2ccccc2F)CCCC1)NCc1cccs1,inactive: 100%
4,CCC(C)(C)C(=O)Nc1cccc(Cl)c1C,inactive: 101%
5,O=C(c1cnccn1)N1CCc2ccccc2C1,inactive: 102%
6,Cc1cc(NC(=O)CSc2nc(-c3ccccc3)c(C#N)c(=O)[nH]2)no1,active: 75%
7,CC1(C)CC(=O)C=C(C(=O)N2CCCC(C(=O)c3cccc(Cl)c3)C2)O1 (centres undefined),inactive: 100%
8,Cn1c(=O)c2c(nc(Br)n2CCCc2ccccc2)n(C)c1=O,inconclusive: 91%
9,O=c1c2ccccc2oc2nc(-c3ccco3)n(Cc3ccccc3)c(=O)c12,inconclusive: 105%
10,O=[N+]([O-])c1cccc(-c2nnc(SCc3cccnc3)o2)c1,inconclusive: 94%
11,COc1ccccc1C(=O)NCCc1c(C)[nH]c2c(C)ccc(F)c12,inactive: 98%
12,COc1ccc(/C=C/C(=O)NC(=S)Nc2cc([N+](=O)[O-])ccc2O)cc1OC,inconclusive: 85%
13,COc1ccc(C2CC(c3ccc4ccccc4c3)=NN2C(=O)CN2C(=O)CCC2=O)cc1 (centres undefined),inactive: 95%
14,O=C(Cn1cnc2c(nnn2Cc2ccc(F)cc2)c1=O)NCc1ccc2c(c1)OCO2,inconclusive: 103%
15,Cc1nnc(SCC(=O)c2ccc(S(=O)(=O)N3CCOCC3)cc2)n1-c1ccccc1,inconclusive: 104%
16,COc1ccccc1NC(=O)C1CC(=O)OC1c1ccccc1 (centres undefined),inconclusive: 105%
17,COc1ccc(-n2cccc2/C=C2\C(=N)N3N=C(c4ccco4)SC3=NC2=O)cc1,inconclusive: 82%
18,O=C(CSc1ccc2c(c1)OCCO2)Nc1cccnc1,inconclusive: 93%
19,Cc1cc(C2(c3cc(C)c(NC(=O)CN4CCOCC4)c(C)c3)CCCCC2)cc(C)c1NC(=O)CN1CCOCC1,inconclusive: 109%
20,O=S(=O)(c1ccc2c(c1)oc1ccccc12)N1CCOCC1,inconclusive: 105%

row,Structure (SMILES),percent activity (GTP binding)
1,Cc1n[nH]c(=O)nc1N1CCN(c2ccccc2)CC1,inconclusive: 90%
2,O=c1c2ccccc2nc2c3ccccc3c(NCc3ccccn3)nn12,active: 75%
3,COc1ccc(C(=O)O/N=C(\N)Cc2ccc(Cl)c(Cl)c2)cc1OC,inconclusive: 98%
4,COC(=O)COc1ccc(S(=O)(=O)Nc2ccc3c(c2)OCO3)cc1,inconclusive: 105%
5,CN(C)C1(CNC(=S)Nc2ccccc2C(F)(F)F)CCCCC1,inactive: 98%
6,CCOC(=O)C1(Cc2ccccc2)CCN(Cc2ccc3c(c2)OCCO3)CC1,inactive: 97%
7,Cc1onc(C(=O)NN)c1C(=O)N1CCN(C(c2ccccc2)c2ccccc2)CC1,inconclusive: 88%
8,CC(=O)Nc1ccc(S(=O)(=O)N2CCN=C2C)cc1,inconclusive: 103%
9,COC(=O)COc1ccc(/C=N/NC(=O)c2ccc(N(Cc3ccccc3)S(C)(=O)=O)cc2)cc1,inactive: 86%
10,CCNC(=O)CC1C(=O)N(c2ccc(F)cc2)C(=O)N1Cc1ccccn1 (centres undefined),inconclusive: 110%
11,O=c1[nH][nH]c(-c2ccccc2O)c1C(C[N+](=O)[O-])c1ccccc1 (centres undefined),inconclusive: 97%
12,COc1ccccc1OCCn1cc(C#N)c2ccccc21,inactive: 103%
13,O=C(CSc1nc2nn(-c3ccccc3)c(=O)c-2c2n1CCCCC2)NCCCc1ccccc1,inconclusive: 94%
14,COc1ccc(/C=N\NC(=O)CCN2CCN(c3ccccc3)CC2)cc1OC,inconclusive: 84%
15,Cc1ccc2nc(C)c(C(=O)N/N=C/c3cccs3)cc2c1,inconclusive: 96%
16,CCN(C(=O)COc1cc(=O)n(C)c2ccccc12)c1cccc(Cl)c1,inconclusive: 107%
17,CCOC(=O)c1sc2nc(CC(=O)OC)nc(N3CCN(c4ccccn4)CC3)c2c1C,inconclusive: 94%
18,CC(Sc1nc2c(cc1C#N)CCCCC2)C(=O)O (centres undefined),inactive: 96%
19,CC(C)c1ccc(NC(=O)COC(=O)/C=C/c2cccc([N+](=O)[O-])c2)cc1,inconclusive: 88%
